Measured values published in PubChem BioAssay AID504332 (National Center for Advancing Translational Sciences (NCATS), 2011).
Values joined by “and” are separate entries in the source; they are usually repeats but may differ in a detail not shown here. Identical values can stand only once. The whole screen tested about 350,000 compounds, of which about 31,000 (8.9%) were called active. Inconclusive means that the source gave no clear call. Such entries were picked first, then a sample of the others. Calls come from the whole dose curve; as a rule, active = well fitted inhibition curve with a large enough effect; inconclusive = small, poorly fitted or top-dose-only effect; inactive = no such curve, though single readings can be large or run the other way. A potency beside an inconclusive call is a rough fit, not a confirmed value.

target: Histone-lysine N-methyltransferase EHMT2 (Homo sapiens) (UniProt Q96KQ7); assay: qHTS Assay for Inhibitors of Histone Lysine Methyltransferase G9a; conditions: G9a H3K9 monomethylation, AlphaScreen, 2 h; activity, negative = inhibition: at 59 µM (top of the series) unless noted; note: nearly all actives have a fitted effect of over 75% in size
Chain of UniProt Q96KQ7 (Q96KQ7 whole entry, looked up): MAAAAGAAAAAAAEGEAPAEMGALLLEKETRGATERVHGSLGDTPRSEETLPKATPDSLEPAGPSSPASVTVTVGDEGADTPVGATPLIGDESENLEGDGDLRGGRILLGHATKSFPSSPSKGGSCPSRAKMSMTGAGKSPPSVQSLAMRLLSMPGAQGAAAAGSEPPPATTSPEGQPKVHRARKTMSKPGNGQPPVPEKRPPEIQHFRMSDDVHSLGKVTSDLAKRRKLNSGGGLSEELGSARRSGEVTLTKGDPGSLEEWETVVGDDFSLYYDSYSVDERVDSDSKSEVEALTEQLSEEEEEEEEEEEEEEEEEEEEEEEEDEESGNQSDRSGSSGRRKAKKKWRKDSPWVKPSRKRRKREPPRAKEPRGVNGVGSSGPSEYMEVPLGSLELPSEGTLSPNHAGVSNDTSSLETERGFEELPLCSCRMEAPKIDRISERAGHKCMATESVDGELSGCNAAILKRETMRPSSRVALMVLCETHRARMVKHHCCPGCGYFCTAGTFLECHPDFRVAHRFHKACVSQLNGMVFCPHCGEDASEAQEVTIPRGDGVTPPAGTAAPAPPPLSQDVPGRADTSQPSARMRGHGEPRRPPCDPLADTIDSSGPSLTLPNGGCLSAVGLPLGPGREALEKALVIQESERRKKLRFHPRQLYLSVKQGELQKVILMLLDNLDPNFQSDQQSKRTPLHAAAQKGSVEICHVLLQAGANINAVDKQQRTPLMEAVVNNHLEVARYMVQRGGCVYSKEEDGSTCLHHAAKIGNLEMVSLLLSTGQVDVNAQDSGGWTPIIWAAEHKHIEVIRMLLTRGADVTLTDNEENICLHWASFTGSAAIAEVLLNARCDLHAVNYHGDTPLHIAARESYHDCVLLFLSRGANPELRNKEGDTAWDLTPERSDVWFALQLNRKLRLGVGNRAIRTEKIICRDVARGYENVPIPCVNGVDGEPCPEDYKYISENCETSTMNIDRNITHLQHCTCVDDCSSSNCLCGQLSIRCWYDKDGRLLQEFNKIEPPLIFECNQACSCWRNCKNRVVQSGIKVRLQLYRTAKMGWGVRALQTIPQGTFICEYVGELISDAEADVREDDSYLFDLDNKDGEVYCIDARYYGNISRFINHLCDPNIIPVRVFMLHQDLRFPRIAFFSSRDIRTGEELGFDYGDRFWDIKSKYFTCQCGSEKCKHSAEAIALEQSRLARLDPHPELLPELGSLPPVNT
How it was run: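 Using a bead-based AlphaScreen, monomethylated H3K9 product from 2 h room-temperature reactions (G9a 20 nM, peptide 500 nM, SAM 20 uM) was detected with 0.5 ug/mL rabbit anti-H3K9me1 antibody.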
% is set by controls: 0 for no effect and ±100 for the full control effect; potency is the fitted concentration of half-maximal effect; tags give direction and shape of the fitted curve.

Compound	Potency	activity, negative = inhibition
CC(=O)NCCNc1nc2c(-c3cccc(C)c3)nnn2c2ccc(Cl)cc12	inactive	
O=C(NNC(=O)c1ccc(Cn2cccn2)o1)NC12CC3CC(CC(C3)C1)C2	inactive	
CC(C)=CCC1=C(O)c2ccccc2C(=O)C1=O		inconclusive: -63.8% [inhibitor] [at 2.33 µM]
COc1cc(OC)cc(-c2oc3cccnc3c2C#CCCO)c1	inconclusive: 50.1 µM [inhibitor, partial curve, poor fit]	
Cc1cc2ccccn2c1C(=O)c1ccc(N/N=C/c2ccc(C(=O)O)cc2)c([N+](=O)[O-])c1	inconclusive: 2.24 µM [inhibitor, partial curve, poor fit]	
COc1ccc(OC)c(NC(=O)C(=S)NC2CCCCC2)c1		inconclusive: -76.1% [inhibitor]
CSc1ccc(CNC(=O)Cc2csc3ccccc23)cc1	inactive	
COc1ccc(N2CCN(C(=O)c3ccc(C(C)(C)C)cc3)CC2)cc1	inconclusive: 2.51 µM [inhibitor, partial curve, poor fit]	
COc1ccc(CCNC(=O)CSc2nc(-c3ccco3)cc(C(F)(F)F)n2)cc1	inactive	
O=C(NC1CCCCC1)c1nn2c(C(F)(F)F)cc(-c3ccco3)nc2c1Br		inconclusive: -87.4% [inhibitor]
COc1ccc(CNC(=O)CN(c2cc(C(F)(F)F)ccc2Cl)S(C)(=O)=O)cc1	inactive	
CC(C)(C)NC(=O)Cc1ccc(S(=O)(=O)N2CCCC2)s1		inconclusive: -75.2% [inhibitor]
COC(=O)/C=C1\C(=O)N(c2nc3ccccc3s2)C(=S)N1c1ccc(F)cc1	active: 70.8 µM	
c1cncc(Nc2nc(-c3cccs3)cs2)c1	inconclusive: 4.47 µM [inhibitor, single point]	
CCS(=O)(=O)N1CCN(Cc2ccncc2)CC1	active: 14.1 µM	
COc1ccc(-c2cn[nH]c2-c2ccc(OCc3ccc([N+](=O)[O-])cc3)cc2O)cc1	inconclusive: 28.2 µM [inhibitor, single point]	
COc1ccc2cc(CCNC(=O)c3ccc(Br)o3)c(=O)[nH]c2c1	active: 50.1 µM	
O=C(COC(=O)/C=C/c1cccc(C(F)(F)F)c1)NCc1ccco1	inconclusive: 79.4 µM [inhibitor, single point]	
O=C(O)CSc1nnc(NC(=O)c2ccc3c(c2)OCO3)s1	inactive	
COc1ccc(N2C(=O)C(Cl)=C(N3CCCC(C)C3)C2=O)cc1 (centres undefined)		inconclusive: -86% [inhibitor]
O=C(O)C1CC=CCC1C(=O)Nc1ccccc1 (centres undefined)	inconclusive: 3.16 µM [inhibitor, single point]	
COC(=O)c1c(NC(=O)CCc2ccc(C)o2)sc(C)c1C		inconclusive: -63.6% [inhibitor]
CCN(CC(=O)NCc1ccccn1)S(=O)(=O)c1ccc(Cl)cc1	active: 12.6 µM	
Cc1c(C(=O)N/N=C/c2cccnc2)sc(N)c1C#N	inactive	
CC1(C)OC(=O)C(=CSc2ccc(C(C)(C)C)cc2)C(=O)O1	inconclusive: 50.1 µM [inhibitor, partial curve, poor fit]	

Compound	Potency	activity, negative = inhibition
c1ccc(C2=Nn3c(nnc3-c3n[nH]c4c3CCC4)SC2)cc1	inconclusive: 15.8 µM [inhibitor, single point]	
O=C(NCCCn1ccnc1)c1ccccc1NS(=O)(=O)c1ccc(F)c(F)c1	inconclusive: 11.2 µM [inhibitor, partial curve]	
O=C(N1CCc2[nH]c3ccccc3c2C1)C(F)(F)F	inactive	
O=C(NCCCCNC(=O)c1ccc(Br)cc1)c1ccc(Br)cc1	inactive	
Cc1cc(C)nc(-n2ncc3c2CCCC3=O)n1	inconclusive: 70.8 µM [inhibitor, partial curve]	
O=C(N/N=C/c1ccc(-c2ccc([N+](=O)[O-])cc2)o1)c1cccnc1	inconclusive: 79.4 µM [inhibitor, partial curve, poor fit]	
C=CCN(C(=O)C1CC(=O)N(C2CCCC2)C1)c1nc(-c2ccc(S(C)(=O)=O)cc2)cs1 (centres undefined)	inconclusive: 3.55 µM [inhibitor, single point]	
CCN1/C(=C\C(=S)Nc2ccccc2)Sc2ccccc21	inconclusive: 39.8 µM [inhibitor, partial curve, poor fit]	
Cc1ccc(C(=O)c2oc3ccccc3c2NC(=O)c2cc(-c3ccc(Cl)cc3)on2)cc1	inconclusive: 8.91 µM [inhibitor, single point]	
CCCCCC(=O)NC(=S)Nc1ccccc1C(=O)OC	inconclusive: 22.4 µM [inhibitor, partial curve, poor fit]	
CCCC(=O)Nc1nnc(CC(=O)N2CCCC2)s1	inconclusive: 35.5 µM [inhibitor, partial curve, poor fit]	
COc1ccc(N2CCN(CC(=O)c3ccc(Cl)cc3)CC2)cc1	active: 22.4 µM	
Cc1ccc(S(=O)(=O)c2nc(Nc3ccccc3)sc2Cl)cc1	inconclusive: 89.1 µM [inhibitor, single point]	
Cc1ccccc1C(=O)NC(=S)Nc1ccc(N2CCOCC2)cc1	active: 44.7 µM	
CCCCn1c(=O)c2oc3ccccc3c2n(Cc2cccc(F)c2)c1=O	inactive	
COc1ccc(N(CC(=O)NC2CCCC2)C(=O)c2ccc(C)s2)cc1OC	inactive	
COC(=O)c1cccc(NC(N)=S)c1	inconclusive: 50.1 µM [inhibitor, partial curve, poor fit]	
Cc1ccc(N/N=C2\CCS(=O)(=O)c3sccc32)cc1	active: 8.91 µM	
CC(=O)Nc1ccccc1NC(=O)c1ccccc1	inconclusive: 39.8 µM [inhibitor, single point]	
O=c1c2c3nc4ccccc4nc3n(/N=C/c3ccco3)c2ncn1CCC1=CCCCC1	inconclusive: 50.1 µM [inhibitor, partial curve]	
O=C(CS(=O)(=O)Cc1ccccc1)N1CCN(c2cccc(C(F)(F)F)c2)CC1	inconclusive: 1.78 µM [inhibitor, partial curve, poor fit]	
CC(C)c1cnc2c(c1SCC(=O)Nc1ccc(OC(F)(F)F)cc1)c(=O)n(C)c(=O)n2C	inconclusive: 39.8 µM [inhibitor, single point]	
COc1ccc(N2CCN(C(=O)CCc3ccccc3OC)CC2)cc1	active: 79.4 µM	
CC1CCN(S(=O)(=O)c2nnc(NC(=O)c3ccc(C(C)C)cc3)s2)CC1	active: 14.1 µM	
O=C(CCCN1C(=O)c2cccnc2Oc2ccc(Cl)cc21)NCc1ccccc1F	inactive	

Compound	Potency	activity, negative = inhibition
O=c1c2cc(N3CCOCC3)ccc2[nH]c(=S)n1CCCN1CCCCC1		inactive: -18.4% [at 12.7 µM]
COc1ccc(Cn2c(=S)[nH]c3cc(C(=O)N4CCCCC4)ccc3c2=O)cc1	inactive	
CCn1c(SCC(=O)NCc2cccs2)nnc1-c1cccs1	inactive	
Cc1ccc(NC2=C(CC(=O)O)C(c3ccc(F)cc3)N(c3ccc(C)cc3)C2=O)cc1 (centres undefined)	inactive	
N#CC1=C(N)OC2=C(CC/C2=C\c2ccc(F)cc2)C1c1ccc(F)cc1 (centres undefined)	inconclusive: 22.4 µM [inhibitor, single point]	
Cc1ccc(CNC(=O)CCN2C(=O)COc3ccc(C)cc32)cc1	inactive	
Cc1ccc(-c2ocnc2C(=O)N2CCOCC2)cc1		inactive: 15.4% [at 0.501 µM]
CCn1c(CCc2ccccc2)nnc1SCC(N)=O	inconclusive: 50.1 µM [inhibitor, partial curve, poor fit]	
Cc1nc2ccccn2c1C(=O)NN	inconclusive: 25.1 µM [inhibitor, partial curve, poor fit]	
CCCc1[nH]nc2c1C(c1ccc(O)cc1OCC)C(C#N)=C(N)O2 (centres undefined)	inconclusive: 39.8 µM [inhibitor, partial curve, poor fit]	
CC(=O)N1CCC(=NNc2ccnc3cc(Cl)ccc23)CC1	active: 28.2 µM	
COc1ccc(CN2CN(C3CCCC3)CSC2=S)cc1	inconclusive: 70.8 µM [inhibitor, partial curve]	
Cc1cccnc1NC(=S)NC(=O)/C=C/c1ccco1	active: 31.6 µM	
CCOc1ccccc1NC(=O)N(Cc1ccc(F)cc1)C1CCN(CC)CC1	inactive	
CC1CCCN(c2cc3c(cc2[N+](=O)[O-])C(=O)N(c2ccccc2)C3=O)C1 (centres undefined)	inconclusive: 20 µM [inhibitor, single point]	
COc1ccc(N2CCN(C(=O)c3ccc(Cl)c(S(=O)(=O)N4CCCC4)c3)CC2)cc1	active: 39.8 µM	
COC(=O)C1=C(C)NC(C)=C(C(=O)OCCN(C)Cc2ccccc2)C1c1cccc([N+](=O)[O-])c1 (centres undefined)	active: 39.8 µM and active: 29.9 µM	
O=C(Cn1nc(-c2ccccc2)c2ccccc2c1=O)Nc1ccc2c(c1)nc1n2CCOC1	inconclusive: 56.2 µM [inhibitor, partial curve]	
Oc1ccccc1/C=N/n1cnn(Cc2ccccc2Cl)c1=S	active: 3.55 µM	
COC(=O)c1cc(C(=O)N2CCN(c3ccccc3OC)CC2)cc([N+](=O)[O-])c1	inconclusive: 31.6 µM [inhibitor, partial curve, poor fit]	
Nc1ccc2c3c(cccc13)C(=O)N(c1ccccc1)C2=O	inactive	
O=S(=O)(NCCc1ccc(Cl)cc1)c1cccc2cccnc12	inconclusive: 79.4 µM [inhibitor, single point]	
Cc1ccc(NC(=S)NC(=O)C2CCCC2)cc1C	active: 35.5 µM	
Cc1ccc(C)c(-n2c3nc(=O)[nH]c(=O)c-3cc3c(C)nn(-c4ccccc4)c32)c1	inactive	
